We go through 23 compounds from PMC4336329 (PLoS ONE, 2015).

The structures appear in SMILES notation. Hit rate of the full screen: of about 310,000 compounds, about 2,200 (0.71%) showed an effect of 50% or more. The effect is printed as a negative number. Some of the results follow.

The target in this test is human ether-à-go-go-related gene (hERG) potassium channel (human, UniProt Q12809). The test is described as follows: primary screen, population patch clamp on CHO cells stably expressing hERG.
Chain of human ether-à-go-go-related gene (hERG) potassium channel (Q12809 whole entry, looked up): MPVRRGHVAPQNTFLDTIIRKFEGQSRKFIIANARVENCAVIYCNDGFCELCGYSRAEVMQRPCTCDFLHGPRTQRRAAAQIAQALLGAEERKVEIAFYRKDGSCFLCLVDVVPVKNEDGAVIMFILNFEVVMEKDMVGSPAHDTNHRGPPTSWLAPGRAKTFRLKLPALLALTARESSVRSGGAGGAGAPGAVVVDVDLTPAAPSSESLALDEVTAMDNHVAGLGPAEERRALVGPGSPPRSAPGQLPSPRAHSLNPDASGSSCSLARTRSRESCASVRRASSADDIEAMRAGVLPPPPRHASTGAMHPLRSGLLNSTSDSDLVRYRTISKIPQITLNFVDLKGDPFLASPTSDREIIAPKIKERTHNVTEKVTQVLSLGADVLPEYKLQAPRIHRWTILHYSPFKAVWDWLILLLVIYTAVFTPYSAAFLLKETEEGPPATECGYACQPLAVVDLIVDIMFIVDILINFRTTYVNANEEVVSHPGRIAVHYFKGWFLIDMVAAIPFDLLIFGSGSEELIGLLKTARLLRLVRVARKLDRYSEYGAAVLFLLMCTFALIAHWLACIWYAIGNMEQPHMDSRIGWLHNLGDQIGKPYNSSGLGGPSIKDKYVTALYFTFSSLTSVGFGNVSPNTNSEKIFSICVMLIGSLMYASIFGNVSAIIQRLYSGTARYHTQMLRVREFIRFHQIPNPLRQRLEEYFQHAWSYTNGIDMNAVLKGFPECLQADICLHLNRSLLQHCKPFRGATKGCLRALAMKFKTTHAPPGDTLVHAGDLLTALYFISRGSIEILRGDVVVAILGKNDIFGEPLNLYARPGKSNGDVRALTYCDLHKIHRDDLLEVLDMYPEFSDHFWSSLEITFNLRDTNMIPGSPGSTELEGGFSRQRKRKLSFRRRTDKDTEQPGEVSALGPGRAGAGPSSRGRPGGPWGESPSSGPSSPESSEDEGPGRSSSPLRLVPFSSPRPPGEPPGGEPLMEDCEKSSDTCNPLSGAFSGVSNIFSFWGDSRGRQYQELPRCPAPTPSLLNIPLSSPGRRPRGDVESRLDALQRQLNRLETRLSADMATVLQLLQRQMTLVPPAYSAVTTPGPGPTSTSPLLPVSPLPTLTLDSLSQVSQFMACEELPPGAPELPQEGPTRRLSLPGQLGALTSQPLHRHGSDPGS
`COc1ccccc1C(=O)NC(=O)CSc1nc2nc(C)cc(C)n2n1`: the “hERG current change (%, negative = inhibition) at 1uM” value was found to be 11%.

`COc1ccc(N(CC(=O)NCCC2=CCCCC2)S(=O)(=O)c2ccccc2)cc1`: the “hERG current change (%, negative = inhibition) at 1uM” value is 13%.

Consider `CC(=O)N1CCN(S(=O)(=O)c2cccc(C(=O)OCN3C(=O)c4ccccc4C3=O)c2)CC1`, for which the “hERG current change (%, negative = inhibition) at 1uM” value came to 6.18%.

As for `C[C@@H](C(=O)N[C@@H](Cc1ccccc1)C(=O)O)n1nnc2ccccc2c1=O`, the “hERG current change (%, negative = inhibition) at 1uM” value turned out to be 9.59%.

For `COc1ccc([C@H](NC(=O)OC(C)(C)C)C(=O)OC(C)(C)C)cc1`, the “hERG current change (%, negative = inhibition) at 1uM” value amounted to 12.2%.

For `CCOc1ccc(-n2nnc3c(=O)n(CC(=O)Nc4cc(C)on4)cnc32)cc1`, the “hERG current change (%, negative = inhibition) at 1uM” value was 7%.

For the compound `Cc1ccc(S(=O)(=O)N(CC(=O)NCC2CCCO2)Cc2ccc(F)cc2)cc1` (centres unmarked), the “hERG current change (%, negative = inhibition) at 1uM” value is listed as 10.3%.

`O=C(N/C(=C\c1cccc([N+](=O)[O-])c1)C(=O)N1CCOCC1)c1ccco1`: the “hERG current change (%, negative = inhibition) at 1uM” value turned out to be 8.62%.

Consider `Cc1c(C)n(C)c2ccc(C(=O)N3CCN(c4ccccc4)CC3)cc12`, for which the “hERG current change (%, negative = inhibition) at 1uM” value was found to be 8.98%.

Consider `CCOC(=O)c1ccc(NC(=O)CSc2nnc(Cc3cccs3)n2C)cc1`, for which the “hERG current change (%, negative = inhibition) at 1uM” value is on record as 10.6%.

On to `Cc1cc(Br)ccc1NC(=O)CN1C(=O)CCC1=O`, for which the “hERG current change (%, negative = inhibition) at 1uM” value is listed as 12.7%.

Turning to `CCn1ccnc1CN(C)Cc1cn(-c2ccc(C)cc2)nc1-c1cccc(C)c1`, the “hERG current change (%, negative = inhibition) at 1uM” value worked out at 10.3%.

Take `COc1cccc(Oc2coc3cc(OC(=O)N4CCOCC4)ccc3c2=O)c1`: the “hERG current change (%, negative = inhibition) at 1uM” value stood at 4.02%.

For `CC(=O)c1cccc(OCC(=O)Nc2cc(Cl)ccc2-n2cncn2)c1`, the “hERG current change (%, negative = inhibition) at 1uM” value came to 0.225%.

As to `CCc1ccc(C(=O)NNC(=O)c2ccc(OCC(=O)N3CCOCC3)c(OC)c2)cc1`, the “hERG current change (%, negative = inhibition) at 1uM” value was 16.7%.

For `COc1ccc(C(=O)Nc2nc(-c3ccc([N+](=O)[O-])cc3)c(-c3ccc(OC)cc3)s2)cc1`, the “hERG current change (%, negative = inhibition) at 1uM” value turned out to be 16.8%.

With `Cc1c(C(=O)N2CCCCCC2)nnn1-c1nonc1N`, the “hERG current change (%, negative = inhibition) at 1uM” value was 8.3%.

As to `Oc1ccccc1-c1nc2cnccn2c1Nc1ccc2c(c1)OCCO2`, the “hERG current change (%, negative = inhibition) at 1uM” value was found to be 4.77%.

In the case of `COc1cccc2cc(-c3ccccc3)c(=O)oc12`, the “hERG current change (%, negative = inhibition) at 1uM” value is 4.4%.

For the compound `CCc1cc2c(=O)c(-c3nc4ccccc4n3C)c(C)oc2c(CN2CCOCC2)c1O`, the “hERG current change (%, negative = inhibition) at 1uM” value stood at 12.2%.

With `NS(=O)(=O)c1ccc(CCNC(=O)c2ccccc2[N+](=O)[O-])cc1`, the “hERG current change (%, negative = inhibition) at 1uM” value came to 17.6%.

As for `O=C(CC1NC(=O)NC1=O)Nc1cccc2ccccc12` (centres unmarked), the “hERG current change (%, negative = inhibition) at 1uM” value is -12.6%.

In the case of `Cc1ccc(NC(=O)Nc2nnc(Cc3ccc([N+](=O)[O-])cc3)s2)cc1C`, the “hERG current change (%, negative = inhibition) at 1uM” value worked out at 16.5%.
